Reference: the supplement of paper PMC10369915
Some of the results follow. Rule as the data show it: active = 3.2 or more and inactive = the rest. Only a few entries rise above the background.

target: SHP2 C-SH2 domain E139D; assay: enrichment score (SH2-bound / input frequency) (ratio); bacterial display of known human phosphotyrosine sites (pTyr-Var adds point mutants) read by sequencing; higher = stronger binding; tyrosines were phosphorylated by kinases first; settings: peptide library: pTyr-Var
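Also: displayed peptides selected on beads carrying the immobilized SH2 domain, with library peptides lacking any tyrosine serving as negative controls.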

| Binder | enrichment score |
| --- | --- |
| LHNLSYQLEAE [PKP2_Y616] | inactive: 1.49 |
| ELPEKYSQNIY [PKP2_Y626] | inactive: 0.699 |
| ELPEKYSQNIF [PKP2_Y626_YF] | inactive: 0.911 |
| YSQNIYIQNRN [PKP2_Y631] | inactive: 1.12 |
| YSQNICIQNRN [PKP2_Y631_Y631C] | inactive: 0.571 |
| FSQNICIQNRN [PKP2_Y631_Y631C_YF] | inactive: 0.933 |
| FSQNIYIQNRN [PKP2_Y631_YF] | inactive: 1.72 |
| RNLDTYQKRLR [PLA2G2D_Y126] | inactive: 0.743 |
| SIYKDYYRYNF [PLA2G2D_Y85] | inactive: 1.55 |
| GIYKDYYRYNF [PLA2G2D_Y85_S80G] | inactive: 1.09 |
| SIFKDYFRFNF [PLA2G2D_Y85_YF] | inactive: 2.99 |
| FMRGMYFRMKD [PLA2G6_Y541_YF] | inactive: 0.885 |
| SGDINYGQFAQ [PLCG1_Y210_T209N] | inactive: 0.645 |
| DASAVYLHDFQ [PLCG2_Y242] | inactive: 1.25 |
| KFLENYLNCLL [PLD2_Y169_R172C_YF] | active: 3.84 |
| KFLENYLNRLL [PLD2_Y169_YF] | active: 4.22 |
| TTKAKYKTPIF [PLD2_Y573_T577I_YF] | inactive: 1.17 |
| TTKAKYKTPTF [PLD2_Y573_YF] | inactive: 0.664 |
| YKTPTYPYLLP [PLD2_Y578] | inactive: 1.15 |

target: SHP2 C-SH2 domain wild-type; assay: as above; settings: peptide library: pTyr-Var

| Binder | enrichment score |
| --- | --- |
| LHNLSYQLEAE [PKP2_Y616] | inactive: 1.27 |
| ELPEKYSQNIY [PKP2_Y626] | inactive: 0.583 |
| ELPEKYSQNIF [PKP2_Y626_YF] | inactive: 0.684 |
| YSQNIYIQNRN [PKP2_Y631] | inactive: 1.11 |
| YSQNICIQNRN [PKP2_Y631_Y631C] | inactive: 0.828 |
| FSQNICIQNRN [PKP2_Y631_Y631C_YF] | inactive: 0.643 |
| FSQNIYIQNRN [PKP2_Y631_YF] | inactive: 1.75 |
| RNLDTYQKRLR [PLA2G2D_Y126] | inactive: 0.344 |
| SIYKDYYRYNF [PLA2G2D_Y85] | inactive: 1.66 |
| GIYKDYYRYNF [PLA2G2D_Y85_S80G] | inactive: 1.34 |
| SIFKDYFRFNF [PLA2G2D_Y85_YF] | inactive: 2.25 |
| FMRGMYFRMKD [PLA2G6_Y541_YF] | inactive: 0.626 |
| SGDINYGQFAQ [PLCG1_Y210_T209N] | inactive: 0.718 |
| DASAVYLHDFQ [PLCG2_Y242] | inactive: 1.03 |
| KFLENYLNCLL [PLD2_Y169_R172C_YF] | active: 3.46 |
| KFLENYLNRLL [PLD2_Y169_YF] | active: 3.8 |
| TTKAKYKTPIF [PLD2_Y573_T577I_YF] | inactive: 0.979 |
| TTKAKYKTPTF [PLD2_Y573_YF] | inactive: 0.707 |
| YKTPTYPYLLP [PLD2_Y578] | inactive: 0.915 |

target: SHP2 N-SH2 domain L43F; assay: as above; settings: peptide library: pTyr-Var

| Binder | enrichment score |
| --- | --- |
| LHNLSYQLEAE [PKP2_Y616] | inactive: 1.09 |
| ELPEKYSQNIY [PKP2_Y626] | inactive: 0.516 |
| ELPEKYSQNIF [PKP2_Y626_YF] | inactive: 0.943 |
| YSQNIYIQNRN [PKP2_Y631] | inactive: 1.39 |
| YSQNICIQNRN [PKP2_Y631_Y631C] | inactive: 0.583 |
| FSQNICIQNRN [PKP2_Y631_Y631C_YF] | inactive: 0.788 |
| FSQNIYIQNRN [PKP2_Y631_YF] | inactive: 1.44 |
| RNLDTYQKRLR [PLA2G2D_Y126] | inactive: 0.57 |
| SIYKDYYRYNF [PLA2G2D_Y85] | inactive: 1.49 |
| GIYKDYYRYNF [PLA2G2D_Y85_S80G] | inactive: 1.01 |
| SIFKDYFRFNF [PLA2G2D_Y85_YF] | inactive: 2.68 |
| FMRGMYFRMKD [PLA2G6_Y541_YF] | inactive: 0.69 |
| SGDINYGQFAQ [PLCG1_Y210_T209N] | inactive: 0.544 |
| DASAVYLHDFQ [PLCG2_Y242] | inactive: 1.13 |
| KFLENYLNCLL [PLD2_Y169_R172C_YF] | active: 3.8 |
| KFLENYLNRLL [PLD2_Y169_YF] | active: 4.08 |
| TTKAKYKTPIF [PLD2_Y573_T577I_YF] | inactive: 1.09 |
| TTKAKYKTPTF [PLD2_Y573_YF] | inactive: 0.718 |
| YKTPTYPYLLP [PLD2_Y578] | inactive: 1.1 |

target: SHP2 N-SH2 domain T42A; assay: as above; settings: peptide library: pTyr-Var

| Binder | enrichment score |
| --- | --- |
| LHNLSYQLEAE [PKP2_Y616] | inactive: 0.944 |
| ELPEKYSQNIY [PKP2_Y626] | inactive: 0.491 |
| ELPEKYSQNIF [PKP2_Y626_YF] | inactive: 0.781 |
| YSQNIYIQNRN [PKP2_Y631] | active: 3.65 |
| YSQNICIQNRN [PKP2_Y631_Y631C] | inactive: 0.683 |
| FSQNICIQNRN [PKP2_Y631_Y631C_YF] | inactive: 0.779 |
| FSQNIYIQNRN [PKP2_Y631_YF] | inactive: 1.5 |
| RNLDTYQKRLR [PLA2G2D_Y126] | inactive: 0.854 |
| SIYKDYYRYNF [PLA2G2D_Y85] | inactive: 1.77 |
| GIYKDYYRYNF [PLA2G2D_Y85_S80G] | inactive: 1.01 |
| SIFKDYFRFNF [PLA2G2D_Y85_YF] | inactive: 2.41 |
| FMRGMYFRMKD [PLA2G6_Y541_YF] | inactive: 0.66 |
| SGDINYGQFAQ [PLCG1_Y210_T209N] | inactive: 0.469 |
| DASAVYLHDFQ [PLCG2_Y242] | inactive: 1.07 |
| KFLENYLNCLL [PLD2_Y169_R172C_YF] | inactive: 2.78 |
| KFLENYLNRLL [PLD2_Y169_YF] | active: 3.65 |
| TTKAKYKTPIF [PLD2_Y573_T577I_YF] | inactive: 0.85 |
| TTKAKYKTPTF [PLD2_Y573_YF] | inactive: 0.744 |
| YKTPTYPYLLP [PLD2_Y578] | inactive: 1.05 |

target: SHP2 N-SH2 domain T52S; assay: as above; settings: peptide library: pTyr-Var

| Binder | enrichment score |
| --- | --- |
| LHNLSYQLEAE [PKP2_Y616] | inactive: 1.09 |
| ELPEKYSQNIY [PKP2_Y626] | inactive: 0.606 |
| ELPEKYSQNIF [PKP2_Y626_YF] | inactive: 0.716 |
| YSQNIYIQNRN [PKP2_Y631] | inactive: 1.43 |
| YSQNICIQNRN [PKP2_Y631_Y631C] | inactive: 0.502 |
| FSQNICIQNRN [PKP2_Y631_Y631C_YF] | inactive: 0.672 |
| FSQNIYIQNRN [PKP2_Y631_YF] | inactive: 1.84 |
| RNLDTYQKRLR [PLA2G2D_Y126] | inactive: 0.954 |
| SIYKDYYRYNF [PLA2G2D_Y85] | inactive: 1.6 |
| GIYKDYYRYNF [PLA2G2D_Y85_S80G] | inactive: 1.4 |
| SIFKDYFRFNF [PLA2G2D_Y85_YF] | inactive: 2.63 |
| FMRGMYFRMKD [PLA2G6_Y541_YF] | inactive: 0.864 |
| SGDINYGQFAQ [PLCG1_Y210_T209N] | inactive: 0.573 |
| DASAVYLHDFQ [PLCG2_Y242] | inactive: 1.15 |
| KFLENYLNCLL [PLD2_Y169_R172C_YF] | inactive: 3.16 |
| KFLENYLNRLL [PLD2_Y169_YF] | active: 3.96 |
| TTKAKYKTPIF [PLD2_Y573_T577I_YF] | inactive: 1.2 |
| TTKAKYKTPTF [PLD2_Y573_YF] | inactive: 0.87 |
| YKTPTYPYLLP [PLD2_Y578] | inactive: 1.38 |

target: SHP2 N-SH2 domain wild-type; assay: as above; settings: peptide library: pTyr-Var

| Binder | enrichment score |
| --- | --- |
| LHNLSYQLEAE [PKP2_Y616] | inactive: 1.08 |
| ELPEKYSQNIY [PKP2_Y626] | inactive: 0.783 |
| ELPEKYSQNIF [PKP2_Y626_YF] | inactive: 0.742 |
| YSQNIYIQNRN [PKP2_Y631] | inactive: 1.23 |
| YSQNICIQNRN [PKP2_Y631_Y631C] | inactive: 0.661 |
| FSQNICIQNRN [PKP2_Y631_Y631C_YF] | inactive: 0.919 |
| FSQNIYIQNRN [PKP2_Y631_YF] | inactive: 1.93 |
| RNLDTYQKRLR [PLA2G2D_Y126] | inactive: 0.57 |
| SIYKDYYRYNF [PLA2G2D_Y85] | inactive: 1.55 |
| GIYKDYYRYNF [PLA2G2D_Y85_S80G] | inactive: 1.52 |
| SIFKDYFRFNF [PLA2G2D_Y85_YF] | inactive: 2.77 |
| FMRGMYFRMKD [PLA2G6_Y541_YF] | inactive: 0.731 |
| SGDINYGQFAQ [PLCG1_Y210_T209N] | inactive: 0.748 |
| DASAVYLHDFQ [PLCG2_Y242] | inactive: 1.42 |
| KFLENYLNCLL [PLD2_Y169_R172C_YF] | inactive: 3.15 |
| KFLENYLNRLL [PLD2_Y169_YF] | active: 3.69 |
| TTKAKYKTPIF [PLD2_Y573_T577I_YF] | inactive: 0.956 |
| TTKAKYKTPTF [PLD2_Y573_YF] | inactive: 1.18 |
| YKTPTYPYLLP [PLD2_Y578] | inactive: 1.04 |
